Source: ChEMBL document CHEMBL4888484, “Replenishing the malaria drug discovery pipeline: Screening and hit evaluation of the MMV Hit Generation Library 1 (HGL1) against asexual blood stage Plasmodium falciparum ,using a nano luciferase reporter read-out” (2022)
Several values for one entry are separate records, joined by “and”; a condition that tells them apart may be missing. Equal entries are not always repeated. Hit rate of the full screen: of about 150,000 compounds, about 540 (0.36%) showed an effect of 50% or more. The list shows a part of the results.

Test system: Plasmodium falciparum
Experiment: Primary screen in NF54 nanoGlo assay, in single point, at 2uM, 72h; a lower Z score goes with more inhibition
Assay type: functional, Erythrocyte
Conditions: timepoint 72 hour

Row | Compound | % Inhibition | Z score | % Inhibition (2 µM)
1 | COc1ccc(-c2cc(C(=O)N3CCC[C@@H]3CO)[nH]n2)cc1 | -16% | 3.2 | 
2 | Cn1c(=O)n([C@H]2CCN(C(=O)NC3CCCCC3)C2)c2ncncc21 | -17% | 1.72 | 
3 | COC1CCN(S(=O)(=O)c2cc3cc(Cl)ccc3s2)CC1 | -5% | 0.74 | 
4 | Cc1noc(C)c1S(=O)(=O)N1CCCc2cnc(N3CCOCC3)nc21 | -15% | 1.75 | 
5 | Cc1ccccc1-n1c(=O)n(C2CC2)c(=O)c2c1ncn2Cc1ccccc1C#N | 3% | -0.55 | 
6 | CCC[C@H]1CN(c2ncc(F)c(N3CCOCC3)n2)C[C@@H]1C(=O)O | -15% | 1.89 | 
7 | O=C(N[C@H]1CO[C@@H](CN2CCC(F)(F)CC2)[C@@H]1O)C1CCC1 | 6% | -0.93 | 
8 | CCCn1nc(C(=O)N(C)[C@H]2CCS(=O)(=O)C2)ccc1=O | -8% | 0.71 | 
9 | Cc1cc(C(=O)N2C[C@H](C)Oc3cc(F)c(F)cc32)ncn1 | -7% | 1.15 | 
10 | O=C(NC[C@H]1CN(c2ccccc2)C(=O)O1)c1cc2n(n1)CCCO2 | -20% | 3.08 | 
11 | Cc1c(CNC2CCCCC2C(F)(F)F)cc(C#N)n1C (configuration not stated) | -8% | 1.08 | 
12 | COc1cccc(CNc2nnc(CC3CCCC3)s2)n1 | -16% | 2.39 | 
13 | OC[C@H]1CCCN1CCN1CCN(Cc2ccccc2)CC1 | 2% | -0.32 | 
14 | CCNC(=O)N1CCC(NC(C)c2sccc2C)C1 (configuration not stated) | -2% | 0.2 | 
15 | Cc1ccnc(-n2c(=O)c3cc4c(=O)n(-c5cc(C)ccn5)c(=O)c4cc3c2=O)c1 | -12% | 1.48 | 
16 | COc1ccc(-c2nc3cccnc3n2[C@H]2CCN(C(=O)NCc3ccc(F)cc3)C2)cc1 | -1% | 0.12 | 
17 | O=C1NCCOCCN(C(=O)Nc2ccc3c(c2)OCCO3)[C@@H]2CCCC[C@H]12 | -4% | 0.46 | 
18 | Cc1c(Br)cccc1CC(CO)CNC1COC2(CCC2)C1 (configuration not stated) | -5% | 0.94 | 
19 | OC[C@@]1(CCOc2ccccc2)CCCN(Cc2ccoc2)C1 | -10% | 0.92 | 
20 | CCCCNc1nc2c(s1)C[C@]1(C)CC[C@@H]([C@H](C)C(=O)NCCOC)[C@H](O)[C@H]1[C@@H]2C | -5% | 0.84 | 
21 | O=C(c1cnccn1)N1C[C@H]2CC[C@@H](C1)N(C(=O)c1ccc(Cl)s1)C2 | -4% | 0.62 | 

Row | Compound | % Inhibition | Z score | % Inhibition (2 µM)
22 | O=C1C2C3c4ccccc4C(c4ccccc43)[C@@H]2C(=O)N1c1cccnc1 (some centres not stated) | -5% | 0.6 | 
23 | CC(NC(=O)c1ccc(F)c(Cl)c1)C(C)C(=O)O (configuration not stated) | 2% | -0.32 | 
24 | C#CCNC(=O)c1ccccc1NCCCS(C)(=O)=O | -7% | 1.24 | 
25 | Cc1nc(N)nc2[nH]c(=O)n(-c3ccccc3)c(=O)c12 | -1% | 0.09 | 
26 | Cc1ccc2nnc(-c3ccccc3)c(C(=O)N3CCN(c4ccc(F)cc4)CC3)c2c1 | -4% | 0.54 | 
27 | CC(=O)c1cccc(S(=O)(=O)N2CCc3nc(NC(=O)c4cnccn4)sc3C2)c1 | -8% | 1.62 | 
28 | CS(=O)(=O)N(CC(=O)N(Cc1ccco1)C[C@H]1CCCO1)C1CC1 | 3% | -0.4 | 
29 | Cc1nc(COc2nc(C(C)(C)C)no2)sc1C | -11% | 2.04 | 
30 | O=C1NCCN1C(=O)N1CCC[C@H](Oc2cccnn2)C1 | -4% | 0.71 | 
31 | CCN(CC)C(=O)c1cn([C@H]2CC[C@@H](NC(=O)c3ccc(Oc4ccccc4)o3)CC2)nn1 | 9% | -1.15 | 
32 | CCCc1[nH]nc(-c2cccc(OC)c2)c1NC(=O)COc1ccc(Cl)cc1 | -8% | 1.18 | 
33 | O=C(COc1cccc(Cl)c1)N[C@@H]1CCCC[C@H]1O | -11% | 1.55 | 
34 | Cc1ccc(C[C@H](NC(=O)c2cccnc2)c2ccccn2)cc1 | -19% | 2.44 | 
35 | O=C(Nc1ccccc1N1CCOCC1)[C@@H]1CC=CCC1 | 36% | -4.1 | 
36 | COCCNC(=O)Nc1nnc(-c2ccsc2)o1 | -16% | 2.4 | 
37 | Cc1ncc2c(c1CNC(=O)c1c3c(nn1C)CCCC3)CCNC2 | 5% | -0.8 | 
38 | COCC1(NC(=O)[C@H](C)n2ccnc2C)CCCC1 | -1% | 0.14 | 
39 | CC(C)COc1ccccc1[C@H]1CC(O)=Nc2nc(N3CCOCC3)sc21 | 31% | -3.47 | 
40 | O=C(NCCOc1ccccc1)c1ccc2ccccc2n1 | -11% | 1.33 | 
41 | Cc1ccc2c(c1)C1(c3ccccc3)Nc3ccc(C)cc3C1(c1ccccc1)N2 (configuration not stated) | 1% | -0.11 | 
42 | Cc1ccc(OCC[C@H]2CCN(C(=O)C(C)C)C2)cc1 | -4% | 0.83 | 

Row | Compound | % Inhibition | Z score | % Inhibition (2 µM)
43 | COC[C@]1(C(=O)NCCC(=O)NCc2cccnc2)CCN(C(=O)OC(C)(C)C)C1 | -18% | 1.9 | 
44 | Cc1cc(C)cc([C@@H](NC(=O)C(C)C)C(=O)O)c1 | -16% | 2.35 | 
45 | COc1ccc(NC(=O)Cn2c(N3CCCCC3)nc(C)cc2=O)cc1Cl | -12% | 1.26 | 
46 | OC(CNC(CC1CCOC1)c1ccccc1)c1cc(F)ccc1F (configuration not stated) | -2% | 0.38 | 
47 | CC1(C(=O)N2CCCC(OCC3CC3)C2)CCC(=O)NC1 (configuration not stated) | -4% | 0.56 | 
48 | CN(C)c1ccc(C(=O)N[C@H]2CC(C)(C)[C@@H]3C[C@@](C)(O)CC[C@]23CCC(=O)NCCN2CCOCC2)cc1 | 28% | -3.2 | 
49 | CCc1ncc(S(=O)(=O)N[C@H]2CCCNC2=O)s1 | -8% | 1.72 | 
50 | O=C(c1csc(N2CCN(c3ccc(F)cc3)CC2)n1)N1CCOCC1 | -3% | 0.44 | 
51 | O=S(=O)(CC[C@H]1CCCO1)N1CCCCC1 | 2% | -0.32 | 
52 | COc1ccc(NC(=O)N(C)CC[C@H](C)O)cc1Br | -31% | 3.68 | 
53 | Cc1nc([C@@H]2CN(C)C(=O)N2)n(C(C)(C)C)n1 | -12% | 1.64 | 
54 | Cc1cc(NS(=O)(=O)C[C@H](C)c2ccccc2)no1 | -6% | 0.82 | 
55 | O=C(CNC1CCCCC1)N1c2ccccc2C=Cc2ccccc21 | -14% | 1.79 | 
56 | Cc1ccccc1C(=O)N(Cc1ccc(Cl)cc1)[C@H]1CCS(=O)(=O)C1 | -4% | 0.35 | 
57 | Cc1nn(CCO)c(C)c1Br | -49% | 5.73 | 
58 | Fc1ccc([C@@]2(c3noc(-c4ccsc4)n3)CCOC2)cc1 | -9% | 1.23 | 
59 | Cc1nnsc1C(=O)N[C@@H](C)c1cc2cc(Cl)ccc2o1 | -2% | 0.25 | 
60 | Cc1c(C(=O)N2CCCCCCC2)cccc1N1CCNC1=O | -4% | 0.42 | 
61 | O=S(=O)(NC[C@H]1CCCN1c1nccs1)c1cccs1 | -3% | 0.5 | 
62 | Cc1c(-c2ccc(O)cc2)nc(N)c(C#N)c1-c1c[nH]cn1 | -10% | 1.55 | 
63 | CN1CCC(CC(=O)N[C@H]2CC(C)(C)Cc3nc(C(C)(C)C)ncc32)CC1 | -21% | 1.86 | 

Row | Compound | % Inhibition | Z score | % Inhibition (2 µM)
64 | CN1CCN(Cc2ccccc2)C[C@@]12CCC(=O)N(CC1CC1)CC2 | -12% | 2.16 | 
65 | Cn1c(CN2CCCCCC2)nnc1C1CCN(c2cccc(C#N)n2)CC1 | 8% | -0.85 | 
66 | O=C(c1cccnc1)N(C[C@H]1CCOC1)C1CC1 | -1% | 0.19 | 
67 | COc1ccc(CN2C(=O)[C@@H]3C(c4ccccc4Cl)=NO[C@@H]3C2=O)cc1 | -34% | 4 | 
68 | O=C(NCc1cc[nH]n1)Nc1cccnc1 | -11% | 0.95 | 
69 | CCc1nc(-c2ccccc2)nc(N2CCN(C(=O)c3ccc(F)cc3)CC2)c1Cc1ccc(Cl)cc1 | -4% | 0.73 | 
70 | O=C(N1CCOCC1)N(C1CC1)[C@H]1CCc2ccccc21 | -5% | 0.72 | 
71 | Cc1ccc(CNC(=O)C2CC2c2ccc3c(c2)OCCO3)n1C (configuration not stated) | -3% | 0.46 | 
72 | O=C(Cc1cccc(C(=O)O)c1)NC1CCCC1Oc1ccccc1 (configuration not stated) | 4% | -0.36 | 
73 | O=C(N[C@H]1CCS(=O)(=O)C1)c1ccc2cc[nH]c2c1 | -8% | 1.44 | 
74 | CS(=O)(=O)NCCOc1ccccc1 | -18% | 2.39 | 
75 | COc1ccccc1-c1cn2c(n1)CO[C@@H](CNC1CCCCC1)C2 | -14% | 1.83 | 
76 | CNC(=O)C1C2CCC(C2)N1C(=O)c1ccccc1 (configuration not stated) | 16% | -1.91 | 
77 | O=C(Cn1cncn1)Nc1ccc(OCc2ccccc2)cc1 | -31% | 3.61 | 
78 | COc1cccc(-c2nc(C)c(C(=O)Nc3n[nH]c(CC(C)C)n3)s2)c1 |  |  | 82% and 77%
79 | O=c1[nH]c2cc(-c3nc(-c4cccc(Br)c4)no3)ccc2c(=O)n1Cc1ccccc1 | 4% | -0.41 | 
80 | COc1cc2c(cc1OC)CN(C1CC3CCC1C3)CC2 (configuration not stated) | 2% | -0.31 | 
81 | Cc1nnc([C@@H]2CC3(CCN(C(=O)c4ccccc4)CC3)CN2C(=O)c2ccccc2)o1 | -16% | 1.99 | 
82 | CCC1(CC)CN(C(=O)c2nccc3cccnc23)CC[S@@+]1[O-] | -9% | 0.93 | 
83 | CCc1cc([C@H](C)NCC(=O)Nc2ccc(Cl)c(OC)c2)on1 | -6% | 1.22 | 
84 | COc1cccc(CO[C@@H]2CN(C(=O)CCc3scnc3C)CC(=O)N(CC(C)C)C2)c1 | -16% | 1.86 | 
